From paper PMC12040169 (PLOS Biology, 2025)
The other results are listed elsewhere or left out.

The compounds below were run on T1, C. trachomatis L2/434/Bu expressing GFP (CTL2-GFP). Details: total inclusion area; 28.5 h, 10 µM; inhibitor.
T1 construct: L2/434/Bu GFP intracellular growth in HeLa cells
Parameters: species or system HeLa; C. trachomatis total inclusion area by high-content imaging, normalised to DMSO
Summary of the method: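 Following bulk GFP and resorufin fluorescence reads, infected cells were fixed, Hoechst-stained and imaged on a high-content platform. Inclusion total area and number per well served as growth proxies; nuclei counts indicated host viability. MICs were derived as for the fluorescence assay.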

**Q.** With `Cc1cc(=O)nc(N/C(N)=N/c2cccc([N+](=O)[O-])c2)[nH]1` [CBK264857] as the compound, how does the “% of control remaining” value read?
**A.** 82.1445

**Q.** How did the “% of control remaining” value turn out when `O=C(NCc1ccc2c(c1)OCO2)N1CCCC(CO)C1` (stereo not shown) [CBK156034] was run?
**A.** 120.036

**Q.** Which “% of control remaining” value does the source give for `Cc1csc(N2CCC(Nc3cc(CO)ccc3Cl)CC2)n1` [CBK306440] here?
**A.** 108.233

**Q.** With `COCCNc1nccnc1-c1cccc(C(=O)N2CCN(C)CC2)c1` [CBK036864] as the compound, how does the “% of control remaining” value read?
**A.** 121.725

**Q.** With `CSCCCNC(=O)N1CCN(c2cc(C(F)(F)F)ccn2)CC1` [CBK156433] as the compound, how does the “% of control remaining” value read?
**A.** 82.262

**Q.** Which “% of control remaining” value does the source give for `COc1ccc(-c2nc(NC(=O)C3CC3)cnc2-c2cccc(C(F)(F)F)c2)cc1` [CBK036852] here?
**A.** 126.569

**Q.** With `Cc1nc2cc(C(=O)O)ccc2[nH]1` [CBK220035] as the compound, how does the “% of control remaining” value read?
**A.** 89.3214

**Q.** For `CCOC(=O)Cn1c(CN2CCC(Cc3ccccc3)CC2)nc2c1c(=O)n(C)c(=O)n2C` [CBK269454], which “% of control remaining” value is on record?
**A.** 110.612

**Q.** For `Oc1ccc(Nc2nc3nonc3nc2Nc2ccccc2)cc1` [CBK263551], which “% of control remaining” value is on record?
**A.** 66.8035

**Q.** For `c1ccc(CCN2CCCN(c3ccnc(OCCN4CCOCC4)n3)CC2)cc1` [CBK083810], which “% of control remaining” value is on record?
**A.** 89.1524

**Q.** How did the “% of control remaining” value turn out when `COC(=O)[C@@H]1Cc2ncn(C(C)C)c2CN1C(=O)c1ccc(F)cc1` [CBK288990] was run?
**A.** 113.12

**Q.** With `CCc1nccn1CCCNC(=O)Nc1cc(-c2cccnc2)nn1C` [CBK306657] as the compound, how does the “% of control remaining” value read?
**A.** 92.0369

**Q.** Which “% of control remaining” value does the source give for `CC(=O)Nc1cccc(-c2cc(N3CCN(CC(=O)N(C)c4ccccc4)CC3)ncn2)c1` [CBK091134] here?
**A.** 163.024

**Q.** `O=C(O)CSc1c[nH]c2ccccc12` [CBK026377] was tested. Which “% of control remaining” value did it give?
**A.** 84.7488

**Q.** Which “% of control remaining” value does the source give for `CC(c1cccc(F)c1)n1cc(C(=O)NCCc2ccco2)nn1` (stereo not shown) [CBK283582] here?
**A.** 96.9797

**Q.** How did the “% of control remaining” value turn out when `CC(NC(=O)Cc1cccc(F)c1)c1nnc2n1CCCCC2` (stereo not shown) [CBK305975] was run?
**A.** 46.3967

**Q.** With `COCCn1c(CO)nnc1[C@H]1C[C@@H](NC(=O)c2ncc(F)cc2F)C1` [CBK307458] as the compound, how does the “% of control remaining” value read?
**A.** 42.3609

**Q.** How did the “% of control remaining” value turn out when `Cc1cc(C)n(CCNCc2cc(-c3ccccc3)c[nH]c2=O)n1` [CBK284770] was run?
**A.** 41.4967

**Q.** With `O=C(CCCn1ccnc1)Nc1ccc(N2CCCCC2)c(F)c1` [CBK281385] as the compound, how does the “% of control remaining” value read?
**A.** 80.8776

**Q.** How did the “% of control remaining” value turn out when `Cc1cn([C@H]2C[C@@H](O)[C@@H](CN)O2)c(=O)[nH]c1=O` [CBK201315] was run?
**A.** 100.392

**Q.** `Oc1c(CN2CCN(c3ccc(F)cc3)CC2)cc(Br)c2cccnc12` [CBK268051] was tested. Which “% of control remaining” value did it give?
**A.** 24.5219

**Q.** Which “% of control remaining” value does the source give for `COCCOC(=O)N1CCC(C(=O)NC(c2ccccc2)c2ccsc2)CC1` (stereo not shown) [CBK060155] here?
**A.** 83.7384

**Q.** `CCOc1ccc(NC(=O)N(CCOC)Cc2cnn(C)c2)cc1Cl` [CBK306697] was tested. Which “% of control remaining” value did it give?
**A.** 85.5288

**Q.** How did the “% of control remaining” value turn out when `OCc1cccc(-c2cncc(Nc3ccccc3)n2)c1` [CBK065576] was run?
**A.** 110.099

**Q.** For `CN(C)CCN(Cc1ccccc1)Cc1c(F)cccc1Cl` [CBK261867], which “% of control remaining” value is on record?
**A.** 99.1467

**Q.** How did the “% of control remaining” value turn out when `N#Cc1cccc(NC(=O)c2cccs2)c1` [CBK066855] was run?
**A.** 93.0919

**Q.** `O=C(NCc1ccc2c(c1)OCO2)c1cncc(-c2ccc(C(=O)N3CCOCC3)cc2)c1` [CBK158614] was tested. Which “% of control remaining” value did it give?
**A.** 74.4501

**Q.** How did the “% of control remaining” value turn out when `CCc1nc2c(OCc3ccc(S(C)(=O)=O)cc3)cccn2c1N(CCOC)C(C)=O` [CBK147846] was run?
**A.** 98.0417

**Q.** How did the “% of control remaining” value turn out when `O=C(c1ccc2ccccc2n1)N1CCC(F)CC1` [CBK200276] was run?
**A.** 102.42

**Q.** For `Cc1noc(C)c1S(=O)(=O)Nc1ccc(C(=O)Nc2ccc(F)cc2)cc1` [CBK034410], which “% of control remaining” value is on record?
**A.** 82.5896

**Q.** For `Cc1cc2c(o1)c1cnn(CC(=O)N3CCCC(C)C3)c(=O)c1n2C` (stereo not shown) [CBK284218], which “% of control remaining” value is on record?
**A.** 102.978

**Q.** Which “% of control remaining” value does the source give for `Cc1[nH]nc(C(F)(F)F)c1Cl` [CBK025387] here?
**A.** 71.7838

**Q.** Which “% of control remaining” value does the source give for `CCCCN(C(=O)CC1SC(NC2CCCCCC2)=NC1=O)c1ccccc1` (stereo not shown) [CBK067392] here?
**A.** 78.7389

**Q.** How did the “% of control remaining” value turn out when `Cc1c(C(C)NCC2CCCC2O)cnn1-c1ccc(C#N)cc1` (stereo not shown) [CBK304019] was run?
**A.** 75.3728

**Q.** Which “% of control remaining” value does the source give for `Cc1nn(CC(=O)N2CCC(C)CC2)c(=O)c2cc3sccc3n12` [CBK284083] here?
**A.** 52.1284

**Q.** Which “% of control remaining” value does the source give for `Cc1ccc(CS(=O)(=O)N2CCN(CCO)C(C)C2)c(F)c1` (stereo not shown) [CBK304702] here?
**A.** 97.9017

**Q.** Which “% of control remaining” value does the source give for `N#Cc1c(NC(=O)CSc2nnc3c(n2)[nH]c2ccccc23)sc2c1CCCC2` [CBK262417] here?
**A.** 77.5916

**Q.** `O=C(Cn1nnc(-c2ccc(CN3CCOCC3)cc2)n1)Nc1ccc(Br)cc1` [CBK127364] was tested. Which “% of control remaining” value did it give?
**A.** 95.6888

**Q.** Which “% of control remaining” value does the source give for `O=C1CCc2cccc(OCCO)c21` [CBK001442] here?
**A.** 82.7884

**Q.** With `CC(C)NC(=O)[C@H]1O[C@H](CCN2CCN(c3ccccn3)CC2)CC[C@@H]1O` [CBK288722] as the compound, how does the “% of control remaining” value read?
**A.** 105.007

**Q.** Which “% of control remaining” value does the source give for `O=C(O)c1ccc(NS(=O)(=O)c2ccc(Br)c3ccccc23)cc1O` [CBK299772] here?
**A.** 95.653

**Q.** How did the “% of control remaining” value turn out when `CC(C)CNC(=O)C(=O)NCCc1ccc(F)cc1` [CBK264903] was run?
**A.** 108.131

**Q.** How did the “% of control remaining” value turn out when `O=C(Cc1ccsc1)NCCn1nc(-c2cccs2)ccc1=O` [CBK283842] was run?
**A.** 83.3883

**Q.** For `Cc1nc2ccc(C(=O)NCCn3ccnc3C)cc2s1` [CBK282477], which “% of control remaining” value is on record?
**A.** 116.038

**Q.** Which “% of control remaining” value does the source give for `Cn1nccc1C(=O)NC(Cc1ccsc1)c1cccnc1` (stereo not shown) [CBK285394] here?
**A.** 87.9044

**Q.** Which “% of control remaining” value does the source give for `Cc1nc(C)c(C(=O)N2CCC(c3cc4ncccc4[nH]3)CC2)s1` [CBK283396] here?
**A.** 117.68

**Q.** For `COc1ccc(-c2nc3ccccc3s2)cc1NC(=O)c1ccc(OCC(C)C)cc1` [CBK268878], which “% of control remaining” value is on record?
**A.** 107.037

**Q.** With `CCCS(=O)(=O)N1CCN(S(=O)(=O)c2ccc(NC(C)=O)cc2)CC1` [CBK264288] as the compound, how does the “% of control remaining” value read?
**A.** 106.714

**Q.** With `CCC1C(=O)NCCN1C(=O)c1cc2cc(C)ccc2n1C` (stereo not shown) [CBK281729] as the compound, how does the “% of control remaining” value read?
**A.** 99.6273

**Q.** With `Nc1ncc(-c2ccc(C(=O)N3CCOCC3)cc2)cc1C(=O)NCc1ccc(Cl)c(Cl)c1` [CBK158570] as the compound, how does the “% of control remaining” value read?
**A.** 49.6169

**Q.** `Cc1n[nH]c2c1CN(Cc1nc(C)c(C)n1C)CC2` [CBK307456] was tested. Which “% of control remaining” value did it give?
**A.** 40.9735

**Q.** `CC(C)c1nc(CN2CCN(c3ccc4nncn4n3)CC2)cs1` [CBK306219] was tested. Which “% of control remaining” value did it give?
**A.** 98.4576
